Experimental data reported in paper PMC2927779.
Numbering of substitutions follows the chain as printed. Results are given in words; binding and its absence hold for the method and conditions named. For some assays here: Binding seen in cells or lysates may run through a third protein. Some entries that bind do so weakly or less than the wild type. For some assays here: Tags and fused reporters may be left off the sequences shown.

Chains of the proteins cited; added tags and fusions are not shown. Lines headed by an entry give the natural chain unless they say otherwise; changes in a name come on top.
UniProt Q9NFU0: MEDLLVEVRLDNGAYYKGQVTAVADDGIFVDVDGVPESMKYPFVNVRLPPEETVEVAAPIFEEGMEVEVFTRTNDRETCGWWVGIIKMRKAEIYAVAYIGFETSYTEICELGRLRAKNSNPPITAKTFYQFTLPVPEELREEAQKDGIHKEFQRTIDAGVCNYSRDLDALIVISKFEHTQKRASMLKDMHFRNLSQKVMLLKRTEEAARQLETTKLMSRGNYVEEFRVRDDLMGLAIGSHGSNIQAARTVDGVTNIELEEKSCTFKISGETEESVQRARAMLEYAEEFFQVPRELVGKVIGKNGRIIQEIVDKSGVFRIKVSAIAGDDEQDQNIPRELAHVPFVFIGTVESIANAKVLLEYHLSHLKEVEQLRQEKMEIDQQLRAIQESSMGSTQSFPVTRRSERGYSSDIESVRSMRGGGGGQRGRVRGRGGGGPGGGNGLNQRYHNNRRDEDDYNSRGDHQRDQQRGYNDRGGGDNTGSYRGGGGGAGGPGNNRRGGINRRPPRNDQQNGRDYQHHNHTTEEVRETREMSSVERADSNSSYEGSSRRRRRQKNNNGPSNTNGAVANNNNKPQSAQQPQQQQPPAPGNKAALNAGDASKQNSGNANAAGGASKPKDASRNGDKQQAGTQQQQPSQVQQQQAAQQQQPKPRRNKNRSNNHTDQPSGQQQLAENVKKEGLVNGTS
UniProt Q24117: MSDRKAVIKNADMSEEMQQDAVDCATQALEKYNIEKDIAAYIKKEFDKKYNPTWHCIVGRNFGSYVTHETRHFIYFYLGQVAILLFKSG

Legend:
[1] = target: T1, Bicaudal-D (BicD), endogenous, Drosophila (Drosophila (endogenous in embryo extracts)) (UniProt P16568); test: co-IP; immunoprecipitation of endogenous BicD from Drosophila embryonic extracts treated with RNase, immunoblotting
T1 sequence: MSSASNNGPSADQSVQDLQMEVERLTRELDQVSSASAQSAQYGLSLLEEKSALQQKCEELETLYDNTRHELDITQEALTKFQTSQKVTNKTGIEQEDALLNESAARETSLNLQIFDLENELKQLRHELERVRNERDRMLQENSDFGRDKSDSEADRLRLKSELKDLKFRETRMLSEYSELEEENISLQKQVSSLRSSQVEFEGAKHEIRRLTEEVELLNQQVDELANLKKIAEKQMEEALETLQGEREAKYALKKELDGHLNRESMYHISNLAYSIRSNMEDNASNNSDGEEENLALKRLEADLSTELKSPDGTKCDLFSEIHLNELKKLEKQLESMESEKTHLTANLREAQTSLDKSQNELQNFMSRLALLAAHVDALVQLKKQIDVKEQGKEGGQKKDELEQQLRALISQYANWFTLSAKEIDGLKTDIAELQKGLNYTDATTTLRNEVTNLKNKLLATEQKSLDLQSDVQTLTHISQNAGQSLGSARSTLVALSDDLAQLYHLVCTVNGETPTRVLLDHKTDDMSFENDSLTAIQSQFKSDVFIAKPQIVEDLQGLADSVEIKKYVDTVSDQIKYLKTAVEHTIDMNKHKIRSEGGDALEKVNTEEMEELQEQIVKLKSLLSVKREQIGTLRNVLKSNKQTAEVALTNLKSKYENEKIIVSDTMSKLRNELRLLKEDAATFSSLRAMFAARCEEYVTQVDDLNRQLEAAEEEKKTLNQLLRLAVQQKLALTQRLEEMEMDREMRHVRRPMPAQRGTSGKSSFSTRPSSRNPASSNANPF

[2] = target: T2, Drosophila BicD CTD (amino acids 536–782) fused to GST (Drosophila) (UniProt P16568); test: pull-down; GST-BicD CTD as bait, from extracts treated with RNase; western blotting; only the target purified
T2 sequence: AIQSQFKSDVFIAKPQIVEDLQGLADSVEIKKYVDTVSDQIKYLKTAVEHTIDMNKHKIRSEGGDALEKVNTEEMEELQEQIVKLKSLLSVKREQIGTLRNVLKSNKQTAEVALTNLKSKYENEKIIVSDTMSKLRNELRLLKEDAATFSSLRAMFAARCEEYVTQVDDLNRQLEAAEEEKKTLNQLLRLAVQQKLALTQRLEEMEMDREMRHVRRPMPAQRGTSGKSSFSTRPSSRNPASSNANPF

[3] = target: T2, Drosophila BicD CTD (amino acids 536–782) fused to GST (Drosophila); test: pull-down; GST-BicD CTD (wild-type or K730M) as bait, from fly embryonic extracts; Coomassie stain, mass spectrometry of the band and western blotting; only the target purified
[4] = target: T1, Bicaudal-D (BicD), endogenous, Drosophila (Drosophila (endogenous in embryo extracts)); test: co-IP; immunoprecipitation of endogenous BicD from Drosophila embryonic extracts, immunoblotting; without RNase
[5] = target: T3, GFP-tagged Egl protein (Egl::GFP) (Drosophila) (UniProt Q9W1K4); test: co-IP; immunoprecipitation of Egl::GFP, immunoblotting; with and without RNase
T3 sequence: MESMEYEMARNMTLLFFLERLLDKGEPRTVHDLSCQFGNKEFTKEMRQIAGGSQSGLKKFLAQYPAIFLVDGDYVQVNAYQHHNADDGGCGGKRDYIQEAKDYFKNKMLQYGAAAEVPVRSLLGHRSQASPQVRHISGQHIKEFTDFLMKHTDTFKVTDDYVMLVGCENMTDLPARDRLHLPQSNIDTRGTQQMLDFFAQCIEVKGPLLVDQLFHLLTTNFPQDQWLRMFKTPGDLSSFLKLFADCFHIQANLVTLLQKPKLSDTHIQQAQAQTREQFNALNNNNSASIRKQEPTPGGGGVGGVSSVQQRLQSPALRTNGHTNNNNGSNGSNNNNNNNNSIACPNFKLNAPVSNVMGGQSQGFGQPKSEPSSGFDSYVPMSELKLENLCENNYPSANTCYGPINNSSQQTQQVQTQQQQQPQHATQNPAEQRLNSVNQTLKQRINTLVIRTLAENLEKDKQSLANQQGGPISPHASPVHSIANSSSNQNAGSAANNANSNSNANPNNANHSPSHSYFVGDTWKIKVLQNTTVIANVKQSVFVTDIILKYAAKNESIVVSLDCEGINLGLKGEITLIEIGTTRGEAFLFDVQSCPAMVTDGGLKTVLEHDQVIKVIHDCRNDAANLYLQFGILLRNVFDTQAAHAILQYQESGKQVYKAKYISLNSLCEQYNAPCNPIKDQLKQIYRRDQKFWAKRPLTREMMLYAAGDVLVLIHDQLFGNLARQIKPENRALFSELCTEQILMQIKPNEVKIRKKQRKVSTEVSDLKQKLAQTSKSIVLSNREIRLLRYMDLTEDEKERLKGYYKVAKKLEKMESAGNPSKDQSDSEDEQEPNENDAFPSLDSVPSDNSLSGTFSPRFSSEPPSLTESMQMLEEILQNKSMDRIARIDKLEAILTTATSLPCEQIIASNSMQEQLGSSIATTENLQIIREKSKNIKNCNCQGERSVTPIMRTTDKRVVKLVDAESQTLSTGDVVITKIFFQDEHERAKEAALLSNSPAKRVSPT

[6] = target: T4, BicD CTD K730M, yeast two-hybrid fusion (Drosophila) (UniProt P16568); test: two-hybrid; yeast two-hybrid assays
T4 sequence: T2 sequence with K195M

[7] = target: T5, BicD CTD, yeast two-hybrid fusion (Drosophila) (UniProt P16568); test: two-hybrid; yeast two-hybrid assays
T5 sequence: T2 sequence

Fragile X mental retardation protein (FMRP), endogenous, Drosophila (from UniProt Q9NFU0 1-684)
binding [1]: no binding (condition: with RNase treatment) | binding [2]: no binding (condition: with RNase treatment) | binding [3]: binds | binding [4]: binds | binding [5]: no binding

Dynein light chain (Dlc) (from UniProt Q24117 1-89)
binding [5]: binds

subfragment of FMRP (aa 220–618), yeast two-hybrid fusion (from UniProt Q9NFU0 220-618) (domain or fragment)
binding [6]: no binding | binding [7]: binds weakly
